Results: PubChem BioAssay AID488969 (Vanderbilt High Throughput Screening Facility, 2010)
In all, about 110,000 compounds were measured (“z-score”: median about -0.1, highest 2% from about 2 on). This is one part of the list. The source made the active and inactive calls.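 How the source made its calls: active means z-score in the third read window above 3 or below -3; inactive means the rest.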

What follows are compounds tested against Metabotropic glutamate receptor 8 (Rattus norvegicus) (UniProt P70579) (assay: rat mGluR8 modulators via GIRK flux, primary screen, cell-based, thallium flux, HTS (AID 488969)). Conditions: HEK293 rat mGluR8, GIRK (G protein-gated inwardly rectifying potassium channel) thallium flux, FluoZin2; at 10 µM; stronger effect = higher value; submaximal glutamate (EC20) added with thallium.
Chain of UniProt P70579 (P70579 whole entry, looked up): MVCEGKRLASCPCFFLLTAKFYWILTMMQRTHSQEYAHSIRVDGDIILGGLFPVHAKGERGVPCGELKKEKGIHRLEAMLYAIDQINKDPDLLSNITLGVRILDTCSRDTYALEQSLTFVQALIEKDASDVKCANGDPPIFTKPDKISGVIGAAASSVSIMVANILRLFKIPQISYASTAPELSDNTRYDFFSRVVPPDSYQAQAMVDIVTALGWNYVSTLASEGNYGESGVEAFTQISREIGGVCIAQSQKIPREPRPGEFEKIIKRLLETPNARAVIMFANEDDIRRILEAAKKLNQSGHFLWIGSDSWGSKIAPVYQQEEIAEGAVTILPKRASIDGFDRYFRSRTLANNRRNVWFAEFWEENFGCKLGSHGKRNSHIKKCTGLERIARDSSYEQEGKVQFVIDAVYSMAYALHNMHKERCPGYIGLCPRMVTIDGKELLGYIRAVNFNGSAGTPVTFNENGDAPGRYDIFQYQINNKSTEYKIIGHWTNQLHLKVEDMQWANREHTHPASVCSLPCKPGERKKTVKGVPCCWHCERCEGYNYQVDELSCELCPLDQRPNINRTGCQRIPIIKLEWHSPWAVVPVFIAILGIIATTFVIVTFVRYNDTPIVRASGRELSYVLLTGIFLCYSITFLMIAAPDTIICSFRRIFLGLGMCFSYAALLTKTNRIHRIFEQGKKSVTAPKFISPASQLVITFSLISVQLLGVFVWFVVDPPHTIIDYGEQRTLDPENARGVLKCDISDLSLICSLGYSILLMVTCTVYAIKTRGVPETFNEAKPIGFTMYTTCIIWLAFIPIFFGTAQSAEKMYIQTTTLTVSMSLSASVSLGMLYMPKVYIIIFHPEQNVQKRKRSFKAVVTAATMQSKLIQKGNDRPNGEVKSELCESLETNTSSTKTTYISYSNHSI
In the case of `O=C(NC1CCCCC1)C(c1ccc(F)cc1)N(Cc1ccc2c(c1)OCO2)C(=O)c1cnsn1` (stereo not given), the z-score is reported as 0.366.
In the case of `CC1S/C(=N/N=C2CCCCC2)NC1=O` (stereo not given), the z-score is reported as -0.111.
Compound `COc1ccc2c(c1)c(C(=O)N/N=C/c1ccc(O)c(O)c1)c(C)n2C` has a z-score of -0.489.
`Oc1ccccc1CNc1ncc(Br)cc1Br` showed a z-score of -0.314.
For `O=C(Cc1cccs1)N(Cc1cccs1)C1(C(=O)NC2CCCCC2)CCCCC1`, the z-score was -0.122.
`Cc1ccc(-n2c([C@@H]3C[C@H]3c3ccccc3)n[nH]c2=S)cc1` gave a z-score of 0.209.
Compound `CCOCC(=O)Nc1nc2ccccc2s1` has a z-score of 1.22.
`CCOC(=O)c1nnn(-c2nonc2N)c1-c1ccc(OCC)cc1` gave a z-score of -1.5.
`COc1ccc2c(c1)SCCC2=O` was tested, and the z-score was 0.808.
With `O=C(Cn1cccc1C(=O)c1ccccc1)NCCN1CCOCC1` the z-score was 0.121.
For `CC1(C)CC2CC(C)(CN2S(=O)(=O)c2ccc(C(=O)Nc3ccc(Cl)c(S(=O)(=O)N4CCOCC4)c3)cc2)C1` (stereo not given), the z-score was -0.192.
`CCCCn1c(SCC(=O)N2CCCCC2C)nc2cc(S(N)(=O)=O)ccc21` (stereo not given) gave a z-score of -0.0364.
With `COc1ccc(-c2nn(-c3ccccc3)cc2C(=O)Nc2nccs2)cc1` the z-score was 0.207.
`c1ccc2c(c1)CCCN2Cc1nnnn1CC1CCCO1` (stereo not given) gave a z-score of 0.812.
`Clc1cccc(NCc2nnc(SCc3ccccc3Cl)o2)c1` showed a z-score of -0.167.
In the case of `CCOC(=O)C1=C(C)Nc2nc3ccccc3n2C1c1cccs1` (stereo not given), the z-score is reported as -0.405.
`O=c1c2ccccc2[nH]c(=S)n1CCN1CCN(Cc2ccccc2)CC1` was tested, and the z-score was active: 7.91.
For `CCN1C(=O)c2ccc(C(=O)NCc3ccccc3)cc2C1=O`, the z-score was -0.278.
`Cc1ccc(C(=O)NNC(=O)CCCN2C(=O)/C(=C/c3ccccc3Cl)SC2=S)cc1` was tested, and the z-score was 0.165.
In the case of `COc1ccc(C(=O)/C=C/Nc2cccc(O)c2)cc1`, the z-score is reported as -0.288.
`O=c1c2ccccc2sn1-c1ccc(S(=O)(=O)N2CCCC2)cc1` was tested, and the z-score was -0.648.
`Cc1c(Nc2c3c(c(C#N)c4nc5ccccc5n24)CCC3)c(=O)n(-c2ccccc2)n1C` was tested, and the z-score was -0.534.
In the case of `COc1ccc(/C=C/C(=O)NC(=S)Nc2ccccc2C(=O)NC2CCCCC2)cc1`, the z-score is reported as 0.0315.
Compound `O=C(c1ccccc1)c1ccc(OCC(O)CN2CCN(Cc3ccccc3)CC2)cc1` (stereo not given) has a z-score of 0.346.
Work on `CCCCOC(=O)C(C)Nc1n[nH]c(=O)[nH]c1=O` (stereo not given) yielded a z-score of 0.118.
`CC(C)(C)c1cc(C(c2cccnc2)N2CCN(CCO)CC2)cc(C(C)(C)C)c1O` (stereo not given) gave a z-score of 0.0819.
`COc1cc2c(cc1NC(=O)c1cccc([N+](=O)[O-])c1C)oc1ccccc12` gave a z-score of -0.165.
Compound `CCCCSc1nc2c(=O)[nH][nH]c(=O)c2n1Cc1ccccc1` has a z-score of -1.36.
In the case of `C=CCn1c(-c2cccc(OC)c2)n[nH]c1=S`, the z-score is reported as -0.21.
`COc1ccc(C2C(C(=O)N3CCN(c4ccccn4)CC3)CC(=O)N2c2ccc(OC)cc2)cc1` (stereo not given) showed a z-score of -0.0727.
